# This is one part of the list.
# B1: PX9937J-pdi-523-26-523 (Parabacteroides distasonis) (protein)
# chain: EPVSSISDANYWKSPDLFKAFNIGLHGLLRSQSSYNIFVLGEPRSDIYGDQPFGGEATQGVERFSYNTINAEFTGISNFANFYTTLNQINLMIRRTNETDLLGEAEKNYYLGQAYGLRAYIYFHLLRSWGDVIITTEPTLGSELDISHLDKAASPASEVMDLIKKDIDASEKAFGGDYSYKQGKCYWSKPATLMLKGEVYLWSGRQMGGGTGDYTVAKTALQDLQQNGNLKLQEKFTDVFSFNNKENSEMIFALHSGKEDDFMMWRDYNWRNNMVPQREYMAGYCDETGTPFLEIPGYNLQGLMRYQVKKDHYLKSFREGDTRLKGTLKAVYKKHEDGTLEYIAPIQYKFQGTTLEGSNERSWYDDYPIYRYADALLLLAEAKALLGEDPSTEINAVRERAYGSEYFNAHKNEVAYPNDKGSFYNDNPFEAGDENVMEAILKERLREFFFEGKRWYDLRRFGKDYVLKYTTAQESRLLWPINEGALTNNPALKQTPGY
# Experiments:
# Experiment in all cases: glycan array binding signal (z-score within array); higher = stronger binding
# Conditions in all cases: glycan notation: IUPAC condensed, linker removed
# [1] = molecular target: Gal(b1-2)Gal
# In short: (§1)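 The binding signal is a Z-score computed within each array and averaged over linkers. Arrays of the same protein sequence at different concentrations or buffers were also averaged together. Data originate from 3228 arrays in the Consortium for Functional Glycomics database, kept only where the protein sequence was available.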
# [2] = molecular target: Gal(b1-3)Gal
# In short: as §1
# [3] = molecular target: Gal(b1-3)Gal(b1-4)GlcNAc
# In short: as §1
# [4] = molecular target: Gal(b1-3)GalNAc
# In short: as §1
# [5] = molecular target: Gal(b1-3)GalNAc(a1-3)[Fuc(a1-2)]Gal(b1-4)Glc
# In short: as §1
# [6] = molecular target: Gal(b1-3)GalNAc(a1-3)[Fuc(a1-2)]Gal(b1-4)GlcNAc
# In short: as §1
# [7] = molecular target: Gal(b1-3)GalNAc(b1-3)Gal
# In short: as §1
# [8] = molecular target: Gal(b1-3)GalNAc(b1-3)Gal(a1-4)Gal(b1-4)Glc
# In short: as §1
# [9] = molecular target: Gal(b1-3)GalNAc(b1-4)Gal(b1-4)Glc
# In short: as §1
# [10] = molecular target: Gal(b1-3)GalNAc(b1-4)[Neu5Ac(a2-3)]Gal(b1-4)Glc
# In short: as §1
# [11] = molecular target: Gal(b1-3)GlcNAc
# In short: as §1
# [12] = molecular target: Gal(b1-3)GlcNAc(a1-3)Gal(b1-4)GlcNAc
# In short: as §1
# [13] = molecular target: Gal(b1-3)GlcNAc(a1-6)Gal(b1-4)GlcNAc
# In short: as §1
# [14] = molecular target: Gal(b1-3)GlcNAc(b1-2)Man
# In short: as §1
# [15] = molecular target: Gal(b1-3)GlcNAc(b1-2)Man(a1-3)[Gal(b1-3)GlcNAc(b1-2)Man(a1-6)]Man(b1-4)GlcNAc(b1-4)GlcNAc
# In short: as §1
# [16] = molecular target: Gal(b1-3)GlcNAc(b1-2)Man(a1-3)[Gal(b1-3)GlcNAc(b1-2)Man(a1-6)]Man(b1-4)GlcNAc(b1-4)[Fuc(a1-6)]GlcNAc
# In short: as §1
# [17] = molecular target: Gal(b1-3)GlcNAc(b1-2)Man(a1-3)[GlcNAc(b1-4)][Gal(b1-3)GlcNAc(b1-2)Man(a1-6)]Man(b1-4)GlcNAc(b1-4)GlcNAc
# In short: as §1
# [18] = molecular target: Gal(b1-3)GlcNAc(b1-2)[Gal(b1-3)GlcNAc(b1-6)]Man(a1-6)[Gal(b1-3)GlcNAc(b1-2)Man(a1-3)]Man(b1-4)GlcNAc(b1-4)GlcNAc
# In short: as §1
# [19] = molecular target: Gal(b1-3)GlcNAc(b1-3)Gal(b1-3)GlcNAc
# In short: as §1
# [20] = molecular target: Gal(b1-3)GlcNAc(b1-3)Gal(b1-4)Glc
# In short: as §1
# [21] = molecular target: Gal(b1-3)GlcNAc(b1-3)Gal(b1-4)GlcNAc
# In short: as §1
# [22] = molecular target: Gal(b1-3)GlcNAc(b1-3)Gal(b1-4)GlcNAc(b1-2)Man(a1-3)[Gal(b1-3)GlcNAc(b1-3)Gal(b1-4)GlcNAc(b1-2)Man(a1-6)]Man(b1-4)GlcNAc(b1-4)GlcNAc
# In short: as §1
# [23] = molecular target: Gal(b1-3)GlcNAc(b1-3)Gal(b1-4)GlcNAc(b1-2)[Gal(b1-3)GlcNAc(b1-3)Gal(b1-4)GlcNAc(b1-6)]Man(a1-6)[Gal(b1-3)GlcNAc(b1-3)Gal(b1-4)GlcNAc(b1-2)Man(a1-3)]Man(b1-4)GlcNAc(b1-4)[Fuc(a1-6)]GlcNAc
# In short: as §1
# [24] = molecular target: Gal(b1-3)GlcNAc(b1-3)Gal(b1-4)GlcNAc(b1-3)Gal(b1-4)GlcNAc(b1-2)[Gal(b1-3)GlcNAc(b1-3)Gal(b1-4)GlcNAc(b1-3)Gal(b1-4)GlcNAc(b1-6)]Man(a1-6)[Gal(b1-3)GlcNAc(b1-3)Gal(b1-4)GlcNAc(b1-3)Gal(b1-4)GlcNAc(b1-2)Man(a1-3)]Man(b1-4)GlcNAc(b1-4)[Fuc(a1-6)]GlcNAc
# In short: as §1
# [25] = molecular target: Gal(b1-3)GlcNAc(b1-3)Gal(b1-4)GlcNAc(b1-6)[Gal(b1-3)GlcNAc(b1-3)]Gal(b1-4)Glc
# In short: as §1
# [26] = molecular target: Gal(b1-3)GlcNAc(b1-3)Gal(b1-4)[Fuc(a1-3)]GlcNAc
# In short: as §1
# [27] = molecular target: Gal(b1-3)GlcNAc(b1-3)Gal(b1-4)[Fuc(a1-3)]GlcNAc(b1-6)[Gal(b1-3)GlcNAc(b1-3)]Gal(b1-4)Glc
# In short: as §1
# [28] = molecular target: Gal(b1-3)GlcNAc(b1-3)GalNAc
# In short: as §1
# [29] = molecular target: Gal(b1-3)GlcNAc(b1-6)Gal(b1-4)GlcNAc
# In short: as §1
# [30] = molecular target: Gal(b1-3)GlcNAc(b1-6)GalNAc
# In short: as §1
# [31] = molecular target: Gal(b1-3)GlcNAc(b1-6)[Gal(b1-3)]GalNAc
# In short: as §1
# [32] = molecular target: Gal(b1-3)GlcNAc6S
# In short: as §1
# [33] = molecular target: Gal(b1-3)[Fuc(a1-4)]GlcNAc
# In short: as §1
# [34] = molecular target: Gal(b1-3)[Fuc(a1-4)]GlcNAc(b1-2)Man
# In short: as §1
# [35] = molecular target: Gal(b1-3)[Fuc(a1-4)]GlcNAc(b1-2)Man(a1-3)[Gal(b1-3)[Fuc(a1-4)]GlcNAc(b1-2)Man(a1-6)]Man(b1-4)GlcNAc(b1-4)[Fuc(a1-6)]GlcNAc
# In short: as §1
# [36] = molecular target: Gal(b1-3)[Fuc(a1-4)]GlcNAc(b1-3)Gal(b1-3)[Fuc(a1-4)]GlcNAc
# In short: as §1
# [37] = molecular target: Gal(b1-3)[Fuc(a1-4)]GlcNAc(b1-3)Gal(b1-4)[Fuc(a1-3)]GlcNAc
# In short: as §1
binder,measurement,setting,value
B1,glycan array binding signal (z-score),[1],0.192
same,glycan array binding signal (z-score),[2],0.291
same,glycan array binding signal (z-score),[3],-0.526
same,glycan array binding signal (z-score),[4],-0.346
same,glycan array binding signal (z-score),[5],0.248
same,glycan array binding signal (z-score),[6],0.105
same,glycan array binding signal (z-score),[7],-0.459
same,glycan array binding signal (z-score),[8],-0.921
same,glycan array binding signal (z-score),[9],-0.204
same,glycan array binding signal (z-score),[10],0.096
same,glycan array binding signal (z-score),[11],-0.187
same,glycan array binding signal (z-score),[12],-0.385
same,glycan array binding signal (z-score),[13],0.058
same,glycan array binding signal (z-score),[14],-0.347
same,glycan array binding signal (z-score),[15],-0.12
same,glycan array binding signal (z-score),[16],-0.227
same,glycan array binding signal (z-score),[17],0.082
same,glycan array binding signal (z-score),[18],-0.11
same,glycan array binding signal (z-score),[19],-0.607
same,glycan array binding signal (z-score),[20],0.235
same,glycan array binding signal (z-score),[21],-0.577
same,glycan array binding signal (z-score),[22],3.05
same,glycan array binding signal (z-score),[23],1.49
same,glycan array binding signal (z-score),[24],0.518
same,glycan array binding signal (z-score),[25],0.461
same,glycan array binding signal (z-score),[26],-0.102
same,glycan array binding signal (z-score),[27],-0.698
same,glycan array binding signal (z-score),[28],-0.708
same,glycan array binding signal (z-score),[29],-0.374
same,glycan array binding signal (z-score),[30],0.249
same,glycan array binding signal (z-score),[31],0.577
same,glycan array binding signal (z-score),[32],-0.107
same,glycan array binding signal (z-score),[33],-0.24
same,glycan array binding signal (z-score),[34],0.139
same,glycan array binding signal (z-score),[35],0.959
same,glycan array binding signal (z-score),[36],0.257
same,glycan array binding signal (z-score),[37],-0.34
